# Results as given in publication PMC10668032.
# This is one part of the list. At the low end of the ranking the order means little.
# Molecular target: SIX1-Q177R homeodomain (UniProt Q15475)
# Assay: universal protein binding microarray
# Details: Universal all-10-mer PBM (8x60K, AMADID 030236), 300 nM GST-tagged protein, Alexa Fluor 488 anti-GST; buffer, salt, pH and temperature not stated; high values mean tight binding; most listed sequences are background and not binding sites; double strand, one strand shown
row,Sequence,binding signal [E-score]
1,ACAGGGGC,0.028
2,AGTGCCGG,0.00171
3,ATTTATGC,-0.0985
4,CTAGCCTA,-0.181
5,GGATCTAA,0.0388
6,GAAAGCTA,0.00483
7,GAAAGAGC,-0.203
8,GCGAGAAA,-0.198
9,CCATAAAA,-0.208
10,CTTCAGCC,-0.0579
11,GTTAACAA,0.00726
12,CTCTGCAC,0.0268
13,ATCGTTTC,-0.243
14,CCAAGCAG,-0.211
15,AAATAGAA,-0.272
16,TGCCACAA,-0.183
17,CCGGTCGC,-0.228
18,CCCGAAGA,-0.0573
19,CTGTCCGC,-0.248
20,AGCCAAAG,-0.213
21,CCAACAGG,0.00226
22,CTATTATC,-0.0413
23,CAAAACTG,-0.0527
24,ACTGCATG,-0.0929
25,AGCGGCCC,-0.109

row,Sequence,binding signal [E-score]
1,GCCCTTAA,-0.137
2,ATGACTGG,0.0975
3,GTGTGAAC,0.362
4,GGCAGTTA,0.0716
5,ATGCAACG,0.0449
6,AAAATGGG,-0.276
7,CGGGGCTC,-0.0145
8,ATAGAGTA,-0.0184
9,AGTGAAAT,-0.317
10,TGACTCAA,-0.248
11,CTTAAAAG,-0.24
12,CCGTCGCG,0.0978
13,TAAGGTAA,0.053
14,CAAGGGCA,-0.0794
15,ATAGAGAA,-0.0459
16,AATTATCT,-0.225
17,TATAAGCA,-0.142
18,GTGAGTTA,-0.0803
19,ACTAAACC,0.106
20,GGTCTATA,-0.0594
21,ATGCAAAT,0.00259
22,ATCGTACA,0.132
23,CTACACAA,0.119
24,ACCAGCCA,-0.012
25,CATGATAG,-0.0993

row,Sequence,binding signal [E-score]
1,TACTGCTA,-0.0332
2,TCGCTACA,-0.0419
3,GAGCCCAC,0.0874
4,AGCGCTGG,-0.234
5,CCCCTTAG,0.128
6,ACCGAAAC,0.0339
7,CTCTCTTC,-0.152
8,ATAATGTG,-0.0492
9,GCCCGCGA,-0.128
10,AGGAAAAC,-0.0414
11,CTTTCGTA,-0.192
12,TGAGGGAA,-0.0497
13,ATCTGATC,0.105
14,AGTCCAAG,-0.0372
15,GAGCGGGC,-0.0848
16,CTACAACA,0.161
17,AAGGCCGG,-0.0941
18,GACCAACC,0.0465
19,CGCTTCAA,-0.0806
20,GGTGCCTA,0.171
21,GTGTACAA,0.429
22,GAGTATCC,0.199
23,AAGGGATC,0.194
24,AAGCGGGT,0.0964
25,AAGAGCGC,-0.198

row,Sequence,binding signal [E-score]
1,AATGCATA,-0.104
2,TCATAGAA,-0.182
3,ACATAGTC,-0.164
4,CGATACAC,0.402
5,TAGATGAA,-0.174
6,CAGGCGAC,-0.00654
7,CACATGCG,-0.0235
8,ATCGCCGC,0.034
9,CACGGGGG,0.319
10,TCAAGACA,0.0267
11,ACAAGTAA,-0.184
12,GCGAACAC,0.409
13,ATATCAAG,-0.136
14,AACATGTC,-0.0345
15,ATTTTAAG,-0.281
16,CTCCTAGC,-0.097
17,ACAGGTTA,-0.155
18,GCCGACGC,-0.0584
19,ATCTTGCG,-0.236
20,TGCCACCA,-0.144
21,GCGCATGA,0.0225
22,CAGCACTG,-0.095
23,GTGAAGTA,-0.197
24,AAGCCTCC,-0.34
25,AGGCAAAC,-0.111

row,Sequence,binding signal [E-score]
1,AAGAACGT,-0.166
2,CAACAAAA,-0.0545
3,AGTTACGC,-0.0795
4,ACAACTGA,-0.000625
5,TGCCGCAA,-0.0321
6,ATCACTTC,0.0109
7,ACGAATGC,-0.154
8,GAAATGCC,-0.105
9,GACCATAC,-0.135
10,GGACGACA,0.16
11,CACTATGA,0.00301
12,CGGTACTA,-0.0595
13,AGGACTGC,-0.366
14,ACTCATCC,0.0455
15,AGCTTTCA,0.0659
16,ATACATGA,-0.0207
17,CGTACTAG,-0.0427
18,ATCCTCGG,0.0467
19,CGGACCAC,0.0274
20,CTGGGTGA,0.0346
21,AAATGGCT,-0.141
22,ACGAGTAG,0.0547
23,CTGCCTCC,-0.147
24,ACCAAAGG,0.126
25,CTGCGGGC,-0.116

row,Sequence,binding signal [E-score]
1,GTAGGAGA,-0.128
2,AGACCGTG,0.045
3,ATCACGCC,0.0868
4,ACCTAGGA,0.0894
5,GCCTCCGA,-0.12
6,AATACTCT,0.0402
7,GTAATTTA,-0.0893
8,CCGGTAGC,-0.113
9,TGAATCCA,-0.225
10,CTGTCGAC,-0.0196
11,AACGTGAC,-0.0839
12,GGAGCTCA,-0.105
13,AGAAAATA,-0.191
14,GTCGTGCA,0.181
15,CTGTCCCC,-0.103
16,AAAAGAAC,-0.0108
17,GCGTCCAA,-0.115
18,GAGGGATC,0.213
19,ACAGGTGA,0.0476
20,AAACCGCC,-0.015
21,ATAAGAGA,-0.263
22,AGCATCTC,-0.248
23,AGTTATAC,-0.0666
24,CTCTGAAG,-0.0734
25,CCTTGTAG,0.043

row,Sequence,binding signal [E-score]
1,CAGCAGAG,-0.102
2,CGTATGTC,-0.139
3,AGCCTAGA,-0.249
4,ACCTCAAG,-0.0542
5,ACTGGCAA,0.00527
6,GGCTACAA,-0.208
7,CAGTTAAC,0.0497
8,TAACTGTA,-0.0917
9,TATACCCA,0.192
10,AATCGTGA,-0.127
11,ACAGTGCT,0.0383
12,GCATACAC,0.406
13,GTCAATGA,-0.0608
14,ATTCCGCC,-0.186
15,CCCACGAG,0.113
16,CGTTAAAC,0.033
17,GCGGCCAC,-0.17
18,CACACGGG,0.332
19,GTCATCAA,-0.0212
20,AGAACGCT,-0.179
21,AAGCAGGT,0.00317
22,GCGGCGCA,0.0113
